Test results as given in publication PMC9911399, “Two distinct binding modes provide the RNA-binding protein RbFox with extraordinary sequence specificity”.
Where a chain is given by its changes, count along the chain named. This is one part of the list.

B1: AGCUUCG (DNA:RNA)
RNA: GGGAGACCGGAAUUCAGAUUGUCCAGCUUCGUUAAAUCCCGUCGUAGCCACCA
DNA 1: CAATCTGAATTCCGGTCTCCC
DNA 2: TGGTGGCTACGACGGGATT
B2: UCACUUG (DNA:RNA)
RNA: B1 RNA with A25U, G26C, C27A, U28C, C30U
DNA 1: CAATCTGAATTCCGGTCTCCC
DNA 2: TGGTGGCTACGACGGGATT
B3: GUUUGAC (DNA:RNA)
RNA: B1 RNA with A25G, G26U, C27U, U29G, C30A, G31C
DNA 1: CAATCTGAATTCCGGTCTCCC
DNA 2: TGGTGGCTACGACGGGATT
B4: AUUUGAG (DNA:RNA)
RNA: B1 RNA with G26U, C27U, U29G, C30A
DNA 1: CAATCTGAATTCCGGTCTCCC
DNA 2: TGGTGGCTACGACGGGATT
B5: GGUUGUA (DNA:RNA)
RNA: B1 RNA with A25G, C27U, U29G, C30U, G31A
DNA 1: CAATCTGAATTCCGGTCTCCC
DNA 2: TGGTGGCTACGACGGGATT
B6: CUCGUUC (DNA:RNA)
RNA: B1 RNA with A25C, G26U, U28G, C30U, G31C
DNA 1: CAATCTGAATTCCGGTCTCCC
DNA 2: TGGTGGCTACGACGGGATT
B7: CACGUGC (DNA:RNA)
RNA: B1 RNA with A25C, G26A, U28G, C30G, G31C
DNA 1: CAATCTGAATTCCGGTCTCCC
DNA 2: TGGTGGCTACGACGGGATT
B8: CUAACUU (DNA:RNA)
RNA: GGGAGACCGGAAUUCAGAUUGUCCCUAACUUUUAAAUCCCGUCGUAGCCACCA
DNA 1: CAATCTGAATTCCGGTCTCCC
DNA 2: TGGTGGCTACGACGGGATT
B9: AUGCAGA (DNA:RNA)
RNA: B1 RNA with G26U, C27G, U28C, U29A, C30G, G31A
DNA 1: CAATCTGAATTCCGGTCTCCC
DNA 2: TGGTGGCTACGACGGGATT
B10: CCUUCAA (DNA:RNA)
RNA: B8 RNA with U26C, A27U, A28U, U30A, U31A
DNA 1: CAATCTGAATTCCGGTCTCCC
DNA 2: TGGTGGCTACGACGGGATT
B11: CCCGUCC (DNA:RNA)
RNA: B1 RNA with A25C, G26C, U28G, G31C
DNA 1: CAATCTGAATTCCGGTCTCCC
DNA 2: TGGTGGCTACGACGGGATT
B12: UUGUUCA (DNA:RNA)
RNA: B1 RNA with A25U, G26U, C27G, G31A
DNA 1: CAATCTGAATTCCGGTCTCCC
DNA 2: TGGTGGCTACGACGGGATT
B13: GUAGACG (DNA:RNA)
RNA: B1 RNA with A25G, G26U, C27A, U28G, U29A
DNA 1: CAATCTGAATTCCGGTCTCCC
DNA 2: TGGTGGCTACGACGGGATT
B14: UAUCCCA (DNA:RNA)
RNA: B1 RNA with A25U, G26A, C27U, U28C, U29C, G31A
DNA 1: CAATCTGAATTCCGGTCTCCC
DNA 2: TGGTGGCTACGACGGGATT
B15: CGCGAAG (DNA:RNA)
RNA: B1 RNA with A25C, U28G, U29A, C30A
DNA 1: CAATCTGAATTCCGGTCTCCC
DNA 2: TGGTGGCTACGACGGGATT
B16: CUGCAUC (DNA:RNA)
RNA: B8 RNA with A27G, A28C, C29A, U31C
DNA 1: CAATCTGAATTCCGGTCTCCC
DNA 2: TGGTGGCTACGACGGGATT
B17: GAAAUAC (DNA:RNA)
RNA: B8 RNA with C25G, U26A, C29U, U30A, U31C
DNA 1: CAATCTGAATTCCGGTCTCCC
DNA 2: TGGTGGCTACGACGGGATT
B18: AGUUGUU (DNA:RNA)
RNA: B1 RNA with C27U, U29G, C30U, G31U
DNA 1: CAATCTGAATTCCGGTCTCCC
DNA 2: TGGTGGCTACGACGGGATT
B19: GAAAUUG (DNA:RNA)
RNA: B8 RNA with C25G, U26A, C29U, U31G
DNA 1: CAATCTGAATTCCGGTCTCCC
DNA 2: TGGTGGCTACGACGGGATT
B20: AUCUCUG (DNA:RNA)
RNA: B1 RNA with G26U, U29C, C30U
DNA 1: CAATCTGAATTCCGGTCTCCC
DNA 2: TGGTGGCTACGACGGGATT
B21: CGGCGGU (DNA:RNA)
RNA: B8 RNA with U26G, A27G, A28C, C29G, U30G
DNA 1: CAATCTGAATTCCGGTCTCCC
DNA 2: TGGTGGCTACGACGGGATT
B22: UUGAGGC (DNA:RNA)
RNA: B8 RNA with C25U, A27G, C29G, U30G, U31C
DNA 1: CAATCTGAATTCCGGTCTCCC
DNA 2: TGGTGGCTACGACGGGATT
B23: CGUAACU (DNA:RNA)
RNA: B8 RNA with U26G, A27U, C29A, U30C
DNA 1: CAATCTGAATTCCGGTCTCCC
DNA 2: TGGTGGCTACGACGGGATT
B24: CAGUCCA (DNA:RNA)
RNA: B1 RNA with A25C, G26A, C27G, U29C, G31A
DNA 1: CAATCTGAATTCCGGTCTCCC
DNA 2: TGGTGGCTACGACGGGATT
B25: CAGAGCU (DNA:RNA)
RNA: B8 RNA with U26A, A27G, C29G, U30C
DNA 1: CAATCTGAATTCCGGTCTCCC
DNA 2: TGGTGGCTACGACGGGATT
B26: UGUCCCA (DNA:RNA)
RNA: B1 RNA with A25U, C27U, U28C, U29C, G31A
DNA 1: CAATCTGAATTCCGGTCTCCC
DNA 2: TGGTGGCTACGACGGGATT
B27: ACAACUC (DNA:RNA)
RNA: B8 RNA with C25A, U26C, U31C
DNA 1: CAATCTGAATTCCGGTCTCCC
DNA 2: TGGTGGCTACGACGGGATT
B28: GCCUGGA (DNA:RNA)
RNA: B1 RNA with A25G, G26C, U29G, C30G, G31A
DNA 1: CAATCTGAATTCCGGTCTCCC
DNA 2: TGGTGGCTACGACGGGATT
B29: GGCUCAU (DNA:RNA)
RNA: B1 RNA with A25G, U29C, C30A, G31U
DNA 1: CAATCTGAATTCCGGTCTCCC
DNA 2: TGGTGGCTACGACGGGATT
B30: GCUGGAC (DNA:RNA)
RNA: GGGAGACCGGAAUUCAGAUUGUCCGCUGGACUUAAAUCCCGUCGUAGCCACCA
DNA 1: CAATCTGAATTCCGGTCTCCC
DNA 2: TGGTGGCTACGACGGGATT
B31: CCAUGAU (DNA:RNA)
RNA: B8 RNA with U26C, A28U, C29G, U30A
DNA 1: CAATCTGAATTCCGGTCTCCC
DNA 2: TGGTGGCTACGACGGGATT

Molecular target: T1, RBFOX1 RRM (Homo sapiens, UniProt Q9NWB1 109-208)
T1 sequence: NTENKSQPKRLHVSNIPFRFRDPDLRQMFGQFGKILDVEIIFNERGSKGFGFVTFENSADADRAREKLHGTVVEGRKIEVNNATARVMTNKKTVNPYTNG
Test: EMSA; HiTS-Eq, 1 nM pool, 10 min; buffer printed only for the single-RNA assays: 10 mM Tris pH 7.5, 150 mM NaCl, 3.4 mM EDTA, 0.001% NP-40, 30 C
Settings: tags: His6 N-terminal (pET28a); label: 5' 32P
Summary of the method: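 These values rest on relative association constants, computed from read-count changes of each RNA species versus the control reaction and normalised to the cognate motif. Reads came from free RNA recovered by 8% native PAGE after purified RbFox RRM (wild type or mutant) at increasing concentrations was equilibrated for 10 min in 50 µL with 1 nM of a 5′-radiolabelled pool with 7 randomized nucleotides and DNA-annealed flanks.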

Binder	binding signal
B1	0.0148 KA relative to UGCAUGU
B2	0.00877 KA relative to UGCAUGU
B3	0.0185 KA relative to UGCAUGU
B4	0.017 KA relative to UGCAUGU
B5	0.0162 KA relative to UGCAUGU
B6	0.0112 KA relative to UGCAUGU
B7	0.00811 KA relative to UGCAUGU
B8	0.00453 KA relative to UGCAUGU
B9	0.0122 KA relative to UGCAUGU
B10	0.00424 KA relative to UGCAUGU
B11	0.0149 KA relative to UGCAUGU
B12	0.0181 KA relative to UGCAUGU
B13	0.0104 KA relative to UGCAUGU
B14	0.00164 KA relative to UGCAUGU
B15	0.0123 KA relative to UGCAUGU
B16	0.0212 KA relative to UGCAUGU

Binder	binding signal
B17	0.00324 KA relative to UGCAUGU
B18	0.013 KA relative to UGCAUGU
B19	0.0105 KA relative to UGCAUGU
B20	0.00831 KA relative to UGCAUGU
B21	0.0226 KA relative to UGCAUGU
B22	0.0124 KA relative to UGCAUGU
B23	0.00439 KA relative to UGCAUGU
B24	0.00214 KA relative to UGCAUGU
B25	0.00456 KA relative to UGCAUGU
B26	0.0046 KA relative to UGCAUGU
B27	0.00147 KA relative to UGCAUGU
B28	0.0181 KA relative to UGCAUGU
B29	0.0062 KA relative to UGCAUGU
B30	0.0106 KA relative to UGCAUGU
B31	0.00686 KA relative to UGCAUGU
